Here are results for 22 molecules from PMC12136788.

Some of the results follow.

The labels stand for the following.
T1: UNK ZnF1-6 (called full-length) (human, UniProt Q9C0B0 30-357)
T1 sequence: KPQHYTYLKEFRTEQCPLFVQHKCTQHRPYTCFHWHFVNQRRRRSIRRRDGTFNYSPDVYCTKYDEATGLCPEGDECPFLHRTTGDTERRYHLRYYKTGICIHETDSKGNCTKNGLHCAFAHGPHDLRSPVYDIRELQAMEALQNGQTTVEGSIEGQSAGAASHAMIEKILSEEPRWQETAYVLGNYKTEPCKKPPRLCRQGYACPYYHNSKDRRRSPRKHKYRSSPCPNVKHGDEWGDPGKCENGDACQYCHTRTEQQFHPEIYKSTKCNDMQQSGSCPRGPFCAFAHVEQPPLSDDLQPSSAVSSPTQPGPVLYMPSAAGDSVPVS

B1: chr2:96185838:96185916:-|3pUTR|ENSG00000084090|msi1_unk|total|mutant (ssRNA)
RNA: GGGAGUUCUACAGUCCGACGAUCUGGGAGACUAAUCCUUUCCGACCGCCGCUUUUUGAUGCUCAAAACAUCACAUUUAAAUUCCGUUUAAAAAUUUUUUAACUUUUGUGUCAAACCGGAGUUGAGGAAUUGAGCAGGAUUCUACAACAGAGGAUUGAGCAUCA
B2: chr9:128108756:128108857:+|3pUTR|ENSG00000148339|msi1|total|mutant (ssRNA)
RNA: GGGAGUUCUACAGUCCGACGAUCAAGGCAGCAGCCCUGGCUCCUUUCCUUUGGCAGGUUGGGGAAGGGCUUGCCCCCAGCCUCCGGAUUUCAGGGUUUGACUGGGGGCGUGGAGAGAGAGGGAGGAACCUCAAUAACCUUGAACAACAGAGGAUUGAGCAUCA
B3: chr6:43012266:43012370:-|3pUTR|ENSG00000124733|unk|total|mutant (ssRNA)
RNA: GGGAGUUCUACAGUCCGACGAUCGAGACCCACUUUAUUCAGUUCUGUACAUAUGGGGACAUCGGUCCAAGCCCAACCCACCUCCGCAUGUAUCACUCUGUGGAGAAUAAAGCACCCUAUGUACACAGCCAAAAGCCGCACUGCCAACAGAGGAUUGAGCAUCA
B4: chr13:35475095:35475222:-|CDS|ENSG00000180660|unk|total|mutant (ssRNA)
RNA: GGGAGUUCUACAGUCCGACGAUCGCUGCAACUUAUCUCCUGCCUGCAGUGCCGGCGGUGUCCCCACUACUUUCUACCGAACUCCGAUCUGUUUCAAGGCAAACCUCACUCAGCUCUGGAAAACGCUGCCAAACAAACGUGGCGCAACAGAGGAUUGAGCAUCA
B5: chr10:69104613:69104714:+|3pUTR|ENSG00000122862|unk|total|mutant (ssRNA)
RNA: GGGAGUUCUACAGUCCGACGAUCACAUAUUUUACAGGGUGGAGUGUACUAUAUACUAUUACCUUUGAAUGUGUUUGCAGAGCCCGUGGAUGUGUUUGUCUACAAGUAUGAUUGCUGUUACAUAACACCCCAAAUUAACUCCCACAACAGAGGAUUGAGCAUCA
B6: chr3:105576037:105576138:+|3pUTR|ENSG00000170017|msi1|FALSE|unique (ssRNA)
RNA: GGGAGUUCUACAGUCCGACGAUCCUCCGUUUAAUAAAAGCUUCCGUAGUGCAUUGGUAUGGAUUAAAUGCAUAAAAUAUUCUUAGACUCGAUGCUGUAUAAAAUAUUAUGGGAAAAAAAGAAAAUACGUUAUUUUGCCUCUAACAACAGAGGAUUGAGCAUCA
B7: chr10:72011604:72011705:+|3pUTR|ENSG00000122863|msi1|total|mutant (ssRNA)
RNA: GGGAGUUCUACAGUCCGACGAUCCACCUGCCCGGAGACAGAGGGAGCAGCUGAGGCCUCUCUCCACUGGCCGCCAGCCUCCCCCGCACAAGGGGACCAUUCAGCAAUGAGUGUUUACUCAUGUUCUUUCUUGUUGAUGAGUUCCAACAGAGGAUUGAGCAUCA
B8: ENSG00000198589:be:win_6951|CDS|ENSG00000198589|bound_else_gene|NA|bound_elsewhere_windowed (ssRNA)
RNA: GGGAGUUCUACAGUCCGACGAUCGCAAGGAGGCAAAUUUGAUCAUGCAGAUCGAACUUUUUCAUCAAUUUCCAGAGCUUGGCGAAACAGUCAGCGUGAUACCUCUGAUAUUAAGGAGUUGAUCCCUGAAUUUUAUUAUCUCCCCAACAGAGGAUUGAGCAUCA
B9: ENSG00000107863:be:win_2501|CDS|ENSG00000107863|bound_else_gene|NA|bound_elsewhere_windowed (ssRNA)
RNA: GGGAGUUCUACAGUCCGACGAUCAGGUCCCCUCCAUAGCAACAGUUCCUCCUUGCCUCACAACUUCAGCUCCAUUAAUUCGCCGUCAGCUCUCACAUGACCACGAAUCUGUUGGCCCUCCUAGCCUGGAUGCUCAGCCCAACUCAACAGAGGAUUGAGCAUCA
B10: ENSG00000198589:be:win_251|CDS|ENSG00000198589|bound_else_gene|NA|bound_elsewhere_windowed (ssRNA)
RNA: GGGAGUUCUACAGUCCGACGAUCUCAUUAUCCAAGAAGGUGAGAGUAUUAACUGCAUGGUGGACCUACUGGAAAAAUGUGACAUUACGUGCCAAGCAGAAGUCUGGAGCAUGUUUACAGCCAUUCUGAAGAAAAGCAUACGGACAACAGAGGAUUGAGCAUCA
B11: chr3:41225420:41225524:+|CDS|ENSG00000168036|unk|total|mutant (ssRNA)
RNA: GGGAGUUCUACAGUCCGACGAUCCAUGCGUUCUCCUCAGAUGGUGUCUGCUAUUGUACGUACCAUGCAGAAUACAAAUGAUGCCGAAACAGCUCGUUGUACCGCUGGGACCUUGCAUAACCUUUCCCAUCAUCGUGAGGGCUUCAACAGAGGAUUGAGCAUCA
B12: ENSG00000127954:stop:overlap|stop_codon|ENSG00000127954|stop_codon|NA|stop_codon (ssRNA)
RNA: GGGAGUUCUACAGUCCGACGAUCCAUGUGUAGACAACACCCUUACAAGGAUCCGCCAGGGCUGGGAAAGGAACUCAAAACACUAGAAAAAGCAUUGAAUGGAAAAUCAAUAUUUAAAACAAAGUUCAAUUUAGCUGGAUUUCUCAACAGAGGAUUGAGCAUCA
B13: chr1:67413009:67413110:-|3pUTR|ENSG00000142864|unk|total|mutant (ssRNA)
RNA: GGGAGUUCUACAGUCCGACGAUCCUGAAUUUUAUCUGUUUUAAAAAUGAACUUCUCCCGCUACACAGAAGUAACAAAUAUGGCCGUCAGUUUUGUAUUCCGAAAUGUAUUGGCCGCAGGGAUGUUUUCAUAAUUUUCAGAGAUCAACAGAGGAUUGAGCAUCA
B14: chr9:19286831:19286940:+|CDS|ENSG00000137145|unk|FALSE|unique (ssRNA)
RNA: GGGAGUUCUACAGUCCGACGAUCAUUCCAGGAUGUGAAGUGAUCCUAGCCACACCCUAUGGUCGCUGUGCCAAUGUCAACAAUAGUUCAACUACUUCACAAAGAAUCUUUAUCACUUAUCGAAGGGCUCCUCCAGUUCGACCCCAACAGAGGAUUGAGCAUCA
B15: chr17:49055506:49055607:+|3pUTR|ENSG00000159217|unk|FALSE|unique (ssRNA)
RNA: GGGAGUUCUACAGUCCGACGAUCCACUUCCCGGCUGUGGGGGCUGGGGAGCCACUUGUAACAUUUCUGUGCAGAUUUUAUGUUAGCCACUGCUAUGUAAAAGCACGUUCAAAAUGAAUUUCAGCAGAUUAUGUGUUACCAUAACAACAGAGGAUUGAGCAUCA
B16: chr4:113336597:113336699:+|CDS|ENSG00000145362|unk|FALSE|bound_elsewhere (ssRNA)
RNA: GGGAGUUCUACAGUCCGACGAUCACCUAUGCACAGUGAGCUGGUUAAGAAGAUCCUAGGCAACAAAGCUACCUUCAGCCCUAUAGUCACUUUGGAACCUAGAAGAAGAAAAUUCCACAAACCAAUUACCAUGACCAUUCCUGUCAACAGAGGAUUGAGCAUCA
B17: chr14:81473690:81473791:-|3pUTR|ENSG00000071537|msi1|total|mutant (ssRNA)
RNA: GGGAGUUCUACAGUCCGACGAUCCAGUGUUUUGGAAGUAUGCAUGCAGGCCUAUAAAUGAAAAACACAAUUCUUUAUGUGUACCGCAUGUGUAUUAAUGUCUAACUACAUACGCAAAAACUUCCUUUACAGAGGUUCGGACUACAACAGAGGAUUGAGCAUCA
B18: chr4:138167974:138168075:-|3pUTR|ENSG00000151012|msi1|total|mutant (ssRNA)
RNA: GGGAGUUCUACAGUCCGACGAUCCACAAAAUCUGCAUUGUCCAUGUGAGUAAAGUAAAAUAAUUCCUGUUAUUUUUUUCUGUCCGAAAUAAGUAUGGAGGAUAUGUUUUUAAAAAUUUAUGAGUUAAUUGAAAUAUCCAUAUACAACAGAGGAUUGAGCAUCA
B19: chr6:21598408:21598509:+|3pUTR|ENSG00000124766|msi1|total|mutant (ssRNA)
RNA: GGGAGUUCUACAGUCCGACGAUCCGUUAAGGGUUUUUGUUUUUAAACUUUUUUUUGCCAUCCAUCCUGUGCAAUAUGCCGUGCCGAAUAUUUGUCUUAAAAUUCAAGGCCACAAAAACAAUGUUUGGGGGAAAAAAAAGAAAACAACAGAGGAUUGAGCAUCA
B20: chr12:100625254:100625355:+|3pUTR|ENSG00000139354|unk|FALSE|unique (ssRNA)
RNA: GGGAGUUCUACAGUCCGACGAUCAUAUGUAUUAAAUAUGGAGUUCAUAUACCUGCUAAUAUCAACGGUGGUGCUCUUACUAUUAGUUAAUUGCAUUUUGGUUAAAAAAAAAAAAGCAACAGUUUGGCACUUGUCCUACAAAAGCAACAGAGGAUUGAGCAUCA
B21: chr2:189754195:189754303:-|CDS|ENSG00000128694|unk|FALSE|unique (ssRNA)
RNA: GGGAGUUCUACAGUCCGACGAUCCCAGAGUGCUCCACCAUGAGUGGUGGGAAAGCCAUAGAACAUUUGGCCAAACAAGGAAAUAGAUUUCAUUUUGACAUCAAACCUCCCUUGCAUCAUGCUAAAAAUUGUGAUUUUUCUUUUCAACAGAGGAUUGAGCAUCA
B22: chr11:134247321:134247422:+|3pUTR|ENSG00000151502|unk|total|mutant (ssRNA)
RNA: GGGAGUUCUACAGUCCGACGAUCCCUUUUCAGAGCAUGAGGUCAGGCUCUGUAUCCCUCCUUUUCCCCGCUGAUAUUCUAACCCGAAGCAUUUGUCAAUUCCUUUGCCUCCCAACUGACAACACACGUUCAUUUUCCAACCUUCAACAGAGGAUUGAGCAUCA

This assay has as its target T1, UNK ZnF1-6 (called full-length). In words: nsRBNS (natural sequence RNA bind-n-seq); RBNS binding buffer (assumed for nsRBNS): 25 mM Tris pH 7.5, 150 mM KCl, 3 mM MgCl2, 0.01% Triton X-100, 500 ug/ml BSA, 20 U/ml SUPERase-In, 4 C; UNK is unkempt and MSI1 is Musashi-1; names of the RNAs are library labels; protein concentration not given here; high values mean tight binding.
In the case of B1, the binding signal was 0.371 enrichment R.
On to B2, for which the binding signal worked out at 0.713 enrichment R.
The molecule B3 registered a binding signal of 0.626 enrichment R.
Regarding B4, the binding signal turned out to be 0.644 enrichment R.
Take B5: the binding signal turned out to be 0.289 enrichment R.
For the molecule B6, the binding signal came to 1.49 enrichment R.
In the case of B7, the binding signal stood at 0.585 enrichment R.
For B8, the binding signal is 0.401 enrichment R.
Under B9 stands 1.11 enrichment R.
As to B10, the binding signal stood at 0.43 enrichment R.
As for B11, the binding signal worked out at 0.549 enrichment R.
B12 showed a binding signal of 0.394 enrichment R.
As for B13, the binding signal stood at 0.544 enrichment R.
Under B14 stands 1.1 enrichment R; under B15, 0.537 enrichment R; under B16, 0.749 enrichment R.
B17: the binding signal worked out at 0.563 enrichment R.
The molecule B18 returned a binding signal of 0.638 enrichment R.
Under B19 stands 0.434 enrichment R.
B20 registered a binding signal of 0.986 enrichment R.
Consider B21, for which the binding signal stood at 0.534 enrichment R.
On to B22, for which the binding signal worked out at 0.668 enrichment R.
